# In the supplement of paper PMC8728848:
# The other results are listed elsewhere or left out.
# B1: X56-1 (Clostridium perfringens), P26831 (protein)
# chain: MGSSHHHHHHSSGLVPRGSHMASDPNRIIATYISNRQDAPTGNPDNIFDNNASTELVYKNPNRIDVGTYVGVKYSNPITLNNVEFLMGANSNPNDTMQKAKIQYTVDGREWIDLEEGVEYTMPGAIKVENLDLKVRGVRLIATEARENTWLGVRDINVNKKEDSNSGVEF
# Columns and labels:
# Assay in all cases: glycan array binding signal (z-score within array); higher = stronger binding
# Settings in all cases: glycan notation: IUPAC condensed, linker removed
# [1] = target: GlcNAc(b1-6)Gal(b1-4)GlcNAc
# Outline: (§1)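 The binding signal is a Z-score computed within each array. Data were drawn from 3228 arrays in the Consortium for Functional Glycomics database, restricted to those with a known protein sequence. Scores were averaged over arrays of the same protein sequence at different concentrations or buffers, and over linkers, and negative values can be taken as non-binding.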
# GlcNAc(b1-6)GalNAc = target: GlcNAc(b1-6)GalNAc
# Outline: as §1
# Kdn(a2-3)Gal(b1-3)GlcNAc = target: Kdn(a2-3)Gal(b1-3)GlcNAc
# Outline: as §1
# Kdn(a2-3)Gal(b1-4)GlcNAc = target: Kdn(a2-3)Gal(b1-4)GlcNAc
# Outline: as §1
# [2] = target: Man(a1-2)Man(a1-2)Man(a1-3)Man
# Outline: as §1
# [3] = target: Man(a1-2)Man(a1-2)Man(a1-3)[Man(a1-2)Man(a1-3)[Man(a1-2)Man(a1-6)]Man(a1-6)]Man(b1-4)GlcNAc(b1-4)GlcNAc
# Outline: as §1
# [4] = target: Man(a1-2)Man(a1-2)Man(a1-3)[Man(a1-2)Man(a1-6)[Man(a1-3)]Man(a1-6)]Man(b1-4)GlcNAc(b1-4)GlcNAc
# Outline: as §1
# [5] = target: Man(a1-2)Man(a1-2)Man(a1-6)[Man(a1-3)]Man
# Outline: as §1
# Man(a1-2)Man(a1-3)Man = target: Man(a1-2)Man(a1-3)Man
# Outline: as §1
# [6] = target: Man(a1-2)Man(a1-3)[Man(a1-2)Man(a1-6)]Man
# Outline: as §1
# [7] = target: Man(a1-2)Man(a1-3)[Man(a1-3)[Man(a1-6)]Man(a1-6)]Man(b1-4)GlcNAc(b1-4)GlcNAc
# Outline: as §1
# [8] = target: Man(a1-2)Man(a1-3)[Man(a1-6)]Man(a1-6)[Man(a1-2)Man(a1-3)]Man(b1-4)GlcNAc(b1-4)GlcNAc
# Outline: as §1
# Man(a1-3)[Man(a1-6)]Man = target: Man(a1-3)[Man(a1-6)]Man
# Outline: as §1
# [9] = target: Man(a1-3)[Man(a1-6)]Man(a1-6)[Man(a1-3)]Man(b1-4)GlcNAc(b1-4)GlcNAc
# Outline: as §1
# [10] = target: Man(a1-3)[Man(a1-6)]Man(b1-4)GlcNAc(b1-4)GlcNAc
# Outline: as §1
# Man(b1-4)GlcNAc = target: Man(b1-4)GlcNAc
# Outline: as §1
# Neu5Ac(a2-3)Gal = target: Neu5Ac(a2-3)Gal
# Outline: as §1
# [11] = target: Neu5Ac(a2-3)Gal(b1-3)GalNAc
# Outline: as §1
# [12] = target: Neu5Ac(a2-3)Gal(b1-3)GalNAc(b1-3)Gal(a1-4)Gal(b1-4)Glc
# Outline: as §1
# [13] = target: Neu5Ac(a2-3)Gal(b1-3)GalNAc(b1-4)[Neu5Ac(a2-3)]Gal(b1-4)Glc
# Outline: as §1
# [14] = target: Neu5Ac(a2-3)Gal(b1-3)GalNAc6S
# Outline: as §1
# [15] = target: Neu5Ac(a2-3)Gal(b1-3)GlcNAc
# Outline: as §1
# [16] = target: Neu5Ac(a2-3)Gal(b1-3)GlcNAc(b1-3)Gal(b1-3)GlcNAc
# Outline: as §1
# [17] = target: Neu5Ac(a2-3)Gal(b1-3)GlcNAc(b1-3)Gal(b1-4)GlcNAc
# Outline: as §1
# [18] = target: Neu5Ac(a2-3)Gal(b1-3)GlcNAc6S
# Outline: as §1
# [19] = target: Neu5Ac(a2-3)Gal(b1-3)[Fuc(a1-4)]GlcNAc
# Outline: as §1
# [20] = target: Neu5Ac(a2-3)Gal(b1-3)[Fuc(a1-4)]GlcNAc(b1-3)Gal(b1-4)[Fuc(a1-3)]GlcNAc
# Outline: as §1
# [21] = target: Neu5Ac(a2-3)Gal(b1-3)[Neu5Ac(a2-3)Gal(b1-4)]GlcNAc
# Outline: as §1
# [22] = target: Neu5Ac(a2-3)Gal(b1-3)[Neu5Ac(a2-6)]GalNAc
# Outline: as §1
# Neu5Ac(a2-3)Gal(b1-4)Glc = target: Neu5Ac(a2-3)Gal(b1-4)Glc
# Outline: as §1
# [23] = target: Neu5Ac(a2-3)Gal(b1-4)GlcNAc
# Outline: as §1
# [24] = target: Neu5Ac(a2-3)Gal(b1-4)GlcNAc(b1-3)Gal(b1-3)GlcNAc
# Outline: as §1
# [25] = target: Neu5Ac(a2-3)Gal(b1-4)GlcNAc(b1-3)Gal(b1-4)GlcNAc
# Outline: as §1
# [26] = target: Neu5Ac(a2-3)Gal(b1-4)GlcNAc(b1-3)Gal(b1-4)GlcNAc(b1-3)Gal(b1-4)GlcNAc
# Outline: as §1
# [27] = target: Neu5Ac(a2-3)Gal(b1-4)GlcNAc(b1-3)Gal(b1-4)[Fuc(a1-3)]GlcNAc
# Outline: as §1
# [28] = target: Neu5Ac(a2-3)Gal(b1-4)GlcNAc(b1-6)[Gal(b1-3)]GalNAc
# Outline: as §1
# [29] = target: Neu5Ac(a2-3)Gal(b1-4)GlcNAc6S
# Outline: as §1
# [30] = target: Neu5Ac(a2-3)Gal(b1-4)[Fuc(a1-3)]GlcNAc
# Outline: as §1
# [31] = target: Neu5Ac(a2-3)Gal(b1-4)[Fuc(a1-3)]GlcNAc(b1-3)Gal
# Outline: as §1
# [32] = target: Neu5Ac(a2-3)Gal(b1-4)[Fuc(a1-3)]GlcNAc(b1-3)Gal(b1-4)GlcNAc
# Outline: as §1
# [33] = target: Neu5Ac(a2-3)Gal(b1-4)[Fuc(a1-3)]GlcNAc(b1-3)Gal(b1-4)[Fuc(a1-3)]GlcNAc(b1-3)Gal(b1-4)[Fuc(a1-3)]GlcNAc
# Outline: as §1
# [34] = target: Neu5Ac(a2-3)Gal(b1-4)[Fuc(a1-3)]GlcNAc6S
# Outline: as §1
# [35] = target: Neu5Ac(a2-3)Gal6S(b1-4)GlcNAc
# Outline: as §1
# [36] = target: Neu5Ac(a2-3)Gal6S(b1-4)[Fuc(a1-3)]GlcNAc
# Outline: as §1
# Neu5Ac(a2-3)GalNAc = target: Neu5Ac(a2-3)GalNAc
# Outline: as §1
binder,measurement,setting,value
B1,glycan array binding signal (z-score),[1],-0.098
same,glycan array binding signal (z-score),GlcNAc(b1-6)GalNAc,-0.035
same,glycan array binding signal (z-score),Kdn(a2-3)Gal(b1-3)GlcNAc,-0.429
same,glycan array binding signal (z-score),Kdn(a2-3)Gal(b1-4)GlcNAc,-0.06
same,glycan array binding signal (z-score),[2],0.293
same,glycan array binding signal (z-score),[3],-0.313
same,glycan array binding signal (z-score),[4],-0.323
same,glycan array binding signal (z-score),[5],-0.028
same,glycan array binding signal (z-score),Man(a1-2)Man(a1-3)Man,-0.265
same,glycan array binding signal (z-score),[6],-0.1
same,glycan array binding signal (z-score),[7],-0.387
same,glycan array binding signal (z-score),[8],-0.13
same,glycan array binding signal (z-score),Man(a1-3)[Man(a1-6)]Man,-0.231
same,glycan array binding signal (z-score),[9],-0.349
same,glycan array binding signal (z-score),[10],-0.014
same,glycan array binding signal (z-score),Man(b1-4)GlcNAc,-0.251
same,glycan array binding signal (z-score),Neu5Ac(a2-3)Gal,-0.204
same,glycan array binding signal (z-score),[11],-0.18
same,glycan array binding signal (z-score),[12],-0.474
same,glycan array binding signal (z-score),[13],-0.008
same,glycan array binding signal (z-score),[14],0.015
same,glycan array binding signal (z-score),[15],-0.364
same,glycan array binding signal (z-score),[16],0.086
same,glycan array binding signal (z-score),[17],-0.432
same,glycan array binding signal (z-score),[18],0.12
same,glycan array binding signal (z-score),[19],-0.221
same,glycan array binding signal (z-score),[20],-0.177
same,glycan array binding signal (z-score),[21],-0.513
same,glycan array binding signal (z-score),[22],-0.342
same,glycan array binding signal (z-score),Neu5Ac(a2-3)Gal(b1-4)Glc,-0.25
same,glycan array binding signal (z-score),[23],-0.097
same,glycan array binding signal (z-score),[24],-0.472
same,glycan array binding signal (z-score),[25],9.11
same,glycan array binding signal (z-score),[26],-0.337
same,glycan array binding signal (z-score),[27],-0.236
same,glycan array binding signal (z-score),[28],-0.233
same,glycan array binding signal (z-score),[29],-0.296
same,glycan array binding signal (z-score),[30],-0.338
same,glycan array binding signal (z-score),[31],0.071
same,glycan array binding signal (z-score),[32],0.004
same,glycan array binding signal (z-score),[33],-0.163
same,glycan array binding signal (z-score),[34],1.06
same,glycan array binding signal (z-score),[35],-0.26
same,glycan array binding signal (z-score),[36],-0.221
same,glycan array binding signal (z-score),Neu5Ac(a2-3)GalNAc,-0.264
